Measurements from the supplement of paper PMC9588766.
“And” between values parts separate entries of the source, which are not always exact repeats. Identical values can stand only once. Counter-ions that a name gives are not always drawn. ± gives the standard deviation of the averaged measurements. Over roughly 2,000 compounds, “cell viability relative to DMSO control (compound alone)” has its median near 0.98; the lowest 2% begin near 0.23. The list shows a part of the results.

Test system: PDC-DUC18828
Test: cell viability relative to DMSO control (compound alone) (fraction); PDC-DUC18828 is a patient-derived cholangiocarcinoma cell line; higher = less growth inhibition
Conditions: 1 µM; 72 h
Procedure: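 Selleck Bioactive library screen in the patient-derived FGFR2-G3BP2 fusion-positive ICC cell line PDC-DUC18828 (500 cells/well). Each compound was tested at 1 uM alone, in triplicate, for 72 h. Viability was read by CellTiter-Glo and normalised to plate DMSO controls.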

SMILES | cell viability
CN1CCN(Cc2ccc(Nc3ncc(Cl)c(Nc4ccccc4S(=O)(=O)N(C)C)n3)cc2)CC1 | 0.777 ± 0.018
Cc1nnc(C(=O)NC(C)(C)c2nc(C(=O)NCc3ccc(F)cc3)c(O)c(=O)n2C)o1 [Raltegravir (MK-0518)] | 1.02 ± 0.069
O=C(NC[C@H]1CN(c2ccc(N3CCOCC3=O)cc2)C(=O)O1)c1ccc(Cl)s1 [Rivaroxaban] | 0.987 ± 0.045
C[C@@H]1C[C@H]2[C@@H]3C[C@H](F)C4=CC(=O)C=C[C@]4(C)[C@@]3(F)[C@@H](O)C[C@]2(C)[C@@]1(O)C(=O)CO [Flumethasone] | 0.976 ± 0.036
C[C@@H](Oc1ccc2[nH]nc(/C=C/c3cnn(CCO)c3)c2c1)c1c(Cl)cncc1Cl | 0.234 ± 0.017
C[C@H]1O[C@H](O[C@H]2[C@H](O)[C@@H](O)[C@@H](O[C@H]3[C@H](O)[C@@H](O)C(O)O[C@@H]3CO)O[C@@H]2CO)[C@H](O)[C@@H](O)[C@@H]1N[C@H]1C=C(CO)[C@@H](O)[C@H](O)[C@H]1O (some centres not stated) [Acarbose] | 1.023 ± 0.0077
CNC1CCCN(c2c(F)cc3c(=O)c(C(=O)O)cn(C4CC4)c3c2OC)C1 (configuration not stated) [Balofloxacin] | 1.01 ± 0.035
CC[C@H]1[C@@H](O)[C@@H]2[C@H](CC[C@]3(C)[C@@H]([C@H](C)CCC(=O)O)CC[C@@H]23)[C@@]2(C)CC[C@@H](O)C[C@@H]12 [Obeticholic Acid] | 0.945 ± 0.023
CN1CCC(=C2c3ccccc3C=Cc3ccccc32)CC1 [Cyproheptadine HCl] | 0.996 ± 0.068
N=C(N)NC(=N)NCCc1ccccc1 [Phenformin HCl] | 1.03 ± 0.013
CO[C@H]1/C=C/O[C@@]2(C)Oc3c(C)c(O)c4c(O)c(c(/C=N/N5CCN(C6CCCC6)CC5)c(O)c4c3C2=O)NC(=O)/C(C)=C\C=C\[C@H](C)[C@H](O)[C@@H](C)[C@@H](O)[C@@H](C)[C@H](OC(C)=O)[C@@H]1C [Rifapentine] | 0.922 ± 0.01
CCCc1cc(C(N)=S)ccn1 [Protionamide] | 0.942 ± 0.057
COc1cccc2c1c(O)c(C(=O)N(C)c1ccc(C(F)(F)F)cc1)c(=O)n2C [Tasquinimod] | 0.922 ± 0.054
CC(=O)S[C@@H]1CC2=CC(=O)CC[C@]2(C)[C@H]2CC[C@@]3(C)[C@@H](CC[C@@]34CCC(=O)O4)[C@H]12 [Spironolactone] | 0.932 ± 0.066
C#Cc1cccc(Nc2ncnc3cc(OC)c(OCCCCCCC(=O)NO)cc23)c1 | 0.865 ± 0.045
O=C(O)[C@]1(Cc2cccc(Nc3nccs3)n2)CC[C@@H](Oc2cccc(Cl)c2F)CC1 | 0.481 ± 0.023
COc1cc2c(Nc3ccc(NC(=O)c4ccccc4)cc3)ncnc2cc1OCCCN1CCOCC1 | 0.871 ± 0.029
CC(=O)Nc1ccc(C(=O)Nc2ccccc2N)cc1 [CI994 (Tacedinaline)] | 0.99 ± 0.018
C=C1CC[C@H](O)C/C1=C/C=C1\CCC[C@]2(C)[C@@H]([C@H](C)CCCC(C)C)CC[C@@H]12 [Vitamin D3] | 0.966 ± 0.016
CC(C)(O)[C@H]1CC[C@@](C)([C@H]2[C@@H](O)C[C@@]3(C)[C@@H]4C[C@H](O[C@@H]5O[C@H](CO)[C@@H](O)[C@H](O)[C@H]5O)[C@H]5C(C)(C)[C@@H](O[C@@H]6OC[C@@H](O)[C@H](O)[C@H]6O)CC[C@@]56C[C@@]46CC[C@]23C)O1 [Astragaloside A] | 0.922 ± 0.024
COC(=O)Nc1nc2cc(C(=O)c3cccs3)ccc2[nH]1 [Nocodazole] | 0.367 ± 0.024

SMILES | cell viability
COc1cc(Br)c(Nc2nc(-c3c(C)nc4ncccn34)cs2)c(Br)c1 | 0.453 and 0.354
CC(C)(C)c1cnc(CSc2cnc(NC(=O)C3CCNCC3)s2)o1 | 0.265 ± 0.013
CCN[C@H]1CN(CCCOC)S(=O)(=O)c2sc(S(N)(=O)=O)cc21 [Brinzolamide] | 0.983 ± 0.037
CC(C)c1c(C(=O)Nc2ccccc2)c(-c2ccccc2)c(-c2ccc(F)cc2)n1CC[C@@H](O)C[C@@H](O)CC(=O)O [Atorvastatin Calcium] | 0.958 ± 0.043
OC(Cn1cncn1)(Cn1cncn1)c1ccc(F)cc1F [Fluconazole] | 1.02 ± 0.035
NCCc1c[nH]cn1 [Histamine 2HCl] | 1.02 ± 0.033
C[C@@H](NCCCc1cccc(C(F)(F)F)c1)c1cccc2ccccc12 [Cinacalcet HCl] | 0.937 ± 0.043
CC(=O)Nc1cccc(-n2c(=O)n(C3CC3)c(=O)c3c(Nc4ccc(I)cc4F)n(C)c(=O)c(C)c32)c1 | 0.89 ± 0.035
Nc1[nH]cnc2ncnc1-2 [Adenine HCl] | 1.02 ± 0.019
COc1cc2ncnc(Sc3nnc(C)s3)c2cc1OC | 1 ± 0.058
O=C(NC[C@H](O)CN1CCc2ccccc2C1)c1cc(NC2COC2)ncn1 | 0.914 ± 0.013
Cc1ccc(S(=O)(=O)c2ccc([N+](=O)[O-])o2)cc1 | 0.179 ± 0.033
O=C1NC(=O)C(c2cnc3ccccn23)=C1c1cn2c3c(cc(F)cc13)CN(C(=O)N1CCCCC1)CC2 | 0.635 ± 0.0071
C[C@]12C=CC(=O)C=C1CC[C@@H]1[C@@H]2C(=O)C[C@@]2(C)[C@H]1CC[C@]2(O)C(=O)CO [Prednisone] | 1.09 ± 0.016
c1ccc2c(Oc3nc(Nc4ccc(N5CCOCC5)cc4)c4ncn(C5CCCCC5)c4n3)cccc2c1 [Purmorphamine] | 0.933 ± 0.06
CCOC(=O)CCC(=O)O[C@H]1[C@H](O[C@@H]2[C@@H](C)[C@H](O[C@H]3C[C@@](C)(OC)[C@@H](O)[C@H](C)O3)[C@@H](C)C(=O)O[C@H](CC)[C@@](C)(O)[C@H](O)[C@@H](C)C(=O)[C@H](C)C[C@@]2(C)O)O[C@H](C)C[C@@H]1N(C)C [Erythromycin Ethylsuccinate] | 1.02 ± 0.022
COc1cc(NC(=O)c2ccc(-c3ccc(Cl)cc3)o2)cc(OC)c1 | 0.995 ± 0.041
CS(=O)(=O)Nc1ccc([N+](=O)[O-])cc1Oc1ccccc1 [Nimesulide] | 0.996 ± 0.019
C=CC(=O)Nc1cccc(Nc2nc(Nc3ccc(NC4CN(CCF)C4)cc3OC)ncc2C(F)(F)F)c1 | 0.9123 ± 0.0075
CCC1=C[C@@H]2CN(C1)Cc1c([nH]c3ccccc13)[C@@](C(=O)OC)(c1cc3c(cc1OC)N(C)[C@H]1[C@@](O)(C(=O)OC)[C@H](OC(C)=O)[C@]4(CC)C=CCN5CC[C@]31[C@@H]54)C2 [Vinorelbine Tartrate] | 0.256 ± 0.012
CC(C)CN(C[C@@H](O)[C@H](Cc1ccccc1)NC(=O)O[C@H]1CCOC1)S(=O)(=O)c1ccc(N)cc1 [Amprenavir] | 1.05 ± 0.053
